The values below come from patent publication US20180371095A1 (published 2018).

In this assay the target is T1, recombinant human Siglec-7 (rhSiglec-7)/Fc protein (human, UniProt Q9Y286 19-357, limits assumed).
T1 construct: also called Fc-tagged Siglec7 protein; human Siglec-7 Fc protein; not shown: human IgG Fc region
Kind of assay: SPR (Biacore), Fc-tagged Siglec7 captured on Protein A/G/L CM5 chip.

T1 sequence (Q9Y286 19-357 limits assumed): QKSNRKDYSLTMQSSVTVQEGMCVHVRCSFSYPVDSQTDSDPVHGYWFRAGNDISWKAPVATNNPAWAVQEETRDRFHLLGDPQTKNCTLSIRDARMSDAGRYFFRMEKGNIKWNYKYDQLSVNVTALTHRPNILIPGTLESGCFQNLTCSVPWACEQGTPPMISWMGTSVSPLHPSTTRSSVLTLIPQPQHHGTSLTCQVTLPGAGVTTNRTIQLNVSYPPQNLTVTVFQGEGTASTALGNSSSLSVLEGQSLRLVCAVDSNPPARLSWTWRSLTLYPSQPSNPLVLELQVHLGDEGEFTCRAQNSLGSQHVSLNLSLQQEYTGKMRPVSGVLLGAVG

B1: soluble his-tagged VSIG-4 recombinant protein (receptor)
chain: not shown
notes: not shown: His tag
On to B1, for which the dissociation constant Kd (in general, a measure of binding affinity in units of concentration) amounted to 29.7 nM.
